Measurements taken from paper PMC4336329 (PLoS ONE, 2015).
The campaign covered roughly 310,000 compounds. About 14,000 (4.5%) showed an effect of 50% or more. The effect is printed as a negative number. The list shows a part of the results.

What follows are compounds tested against human ether-à-go-go-related gene (hERG) potassium channel (human, UniProt Q12809) (assay: primary screen, population patch clamp on CHO cells stably expressing hERG).
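Further: peak tail current of the secondary pulse compared with the same well before compound.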

Sequence of human ether-à-go-go-related gene (hERG) potassium channel (Q12809 whole entry, looked up): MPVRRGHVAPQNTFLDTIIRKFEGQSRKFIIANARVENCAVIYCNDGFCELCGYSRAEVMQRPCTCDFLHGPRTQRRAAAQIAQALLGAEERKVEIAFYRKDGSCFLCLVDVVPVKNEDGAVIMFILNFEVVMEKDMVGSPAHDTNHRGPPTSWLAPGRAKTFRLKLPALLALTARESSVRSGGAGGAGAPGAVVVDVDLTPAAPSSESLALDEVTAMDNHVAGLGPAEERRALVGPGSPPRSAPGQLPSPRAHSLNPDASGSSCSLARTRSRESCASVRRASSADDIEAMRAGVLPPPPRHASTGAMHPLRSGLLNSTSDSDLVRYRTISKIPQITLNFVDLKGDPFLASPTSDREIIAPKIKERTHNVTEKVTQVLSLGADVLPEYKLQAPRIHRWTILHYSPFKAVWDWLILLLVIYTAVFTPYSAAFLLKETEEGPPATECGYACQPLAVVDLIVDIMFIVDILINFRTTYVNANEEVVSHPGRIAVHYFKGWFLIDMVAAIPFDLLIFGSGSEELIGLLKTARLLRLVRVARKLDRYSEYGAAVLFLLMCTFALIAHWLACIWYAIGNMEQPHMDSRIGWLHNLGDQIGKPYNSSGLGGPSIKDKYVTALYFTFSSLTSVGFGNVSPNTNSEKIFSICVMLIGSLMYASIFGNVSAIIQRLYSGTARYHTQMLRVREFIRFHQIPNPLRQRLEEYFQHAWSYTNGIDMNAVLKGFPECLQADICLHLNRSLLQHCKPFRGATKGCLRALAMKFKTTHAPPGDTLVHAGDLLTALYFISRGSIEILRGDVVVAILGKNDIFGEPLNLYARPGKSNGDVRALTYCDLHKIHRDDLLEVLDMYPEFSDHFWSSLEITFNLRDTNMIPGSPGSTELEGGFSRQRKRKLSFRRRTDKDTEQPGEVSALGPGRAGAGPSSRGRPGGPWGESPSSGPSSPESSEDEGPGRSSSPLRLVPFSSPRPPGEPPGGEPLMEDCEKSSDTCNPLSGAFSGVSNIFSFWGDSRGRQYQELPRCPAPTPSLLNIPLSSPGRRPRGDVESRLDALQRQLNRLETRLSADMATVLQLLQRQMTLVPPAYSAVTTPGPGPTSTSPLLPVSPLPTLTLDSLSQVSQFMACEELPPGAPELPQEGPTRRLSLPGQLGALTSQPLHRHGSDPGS

Structure (SMILES)	hERG current change (%, negative = inhibition) at 10uM [%]
CN(C1=NS(=O)(=O)c2ccccc21)c1ccc(OC(=O)c2ccccc2)cc1	18.1
Cc1cc(Cl)ccc1OCC(=O)N/N=C1\CCCc2ccccc21	-0.309
O=C(COc1ccccc1)N1CCN(c2nnc(-c3ccccc3)c3ccccc23)CC1	-65.3
CCCNC(=O)c1c(O)c2c([nH]c1=O)CCCC2	16.1
CC(C)=CC(=O)OCC(=O)NC(=O)NC(C)(C)C	12.2
CC1=Nn2c(nnc2-c2cc(C)[nH]n2)SC1	-4.11
O=C(Nc1ccc(F)cc1)NC1CCCCC1	5.47
O=C(Cc1ccc(F)cc1)N1CCN(c2ccc(F)cc2)CC1	0.483
COCCCNC(=O)Cc1ccccc1OC	1.79
NS(=O)(=O)c1ccc(CNC(=O)c2ccc(S(=O)(=O)NCc3ccco3)cc2)cc1	2.78
COc1ccc(C(C(=O)NC2CCCCC2)N(C(=O)Cc2c[nH]c3ccccc23)c2ccc(NC(C)=O)cc2)cc1OC (centres unmarked)	-9.01
C=C(C)CNC(=S)N/N=C1\CCCCc2ccccc21	-60.3
CC(C)c1cccc(C2=CC(=O)C[C@H](c3ccc4c(c3)OCO4)C2)c1	9.93
Cc1cccc(C(=O)NC(=S)Nc2c(C)n(C)n(-c3ccccc3)c2=O)c1	5.67
CCCC(c1nnnn1Cc1ccc(F)cc1)N1CCN(C2CCCCC2)CC1.Cl (centres unmarked)	-62.4
NS(=O)(=O)c1cc(C(=O)OCC(=O)Nc2ccc3[nH]c(=O)[nH]c3c2)ccc1Cl	6.67
COc1ccc(-c2ccc(C#N)c(SCC(=O)Nc3sc4c(c3C#N)CCC4)n2)cc1OC	10.3
CC(C)C(=O)N1CCN(c2nc(-c3ccccc3)c3c(c2C#N)CC(C)(C)OC3)CC1	-49.4
O=C(CSc1nnc(-c2ccc(O)cc2)o1)Nc1ccc2c(c1)OCCO2	-13.8
Cc1ccc(Nc2ncnc3sc(C)c(C)c23)cc1C	17.8
COc1ccccc1N1CCN(S(=O)(=O)c2cccc3nsnc23)CC1	-23
O=C(Cc1cccs1)Nc1cccnc1	4.77
O=C(CCNc1cc(Cl)cc(Cl)c1)c1ccco1	-4.77

Structure (SMILES)	hERG current change (%, negative = inhibition) at 10uM [%]
COc1ccc(NC(=O)COn2nnc3ccc(Cl)cc32)cc1OC	-8.52
Cc1ccc(NS(=O)(=O)c2ccc3c(c2)CC(=O)N3)cc1F	-5.31
Cc1csc(CN(C)C(=O)CC2C(=O)NCCN2Cc2ccc(-c3ccccc3)cc2)n1 (centres unmarked)	1.02
CCC1CCCCN1S(=O)(=O)c1ccc(C(=O)Nc2nnc(C3CC3)o2)cc1 (centres unmarked)	2.52
Nc1ccc(-c2c3ccc(=O)cc-3oc3cc(O)ccc23)c(C(=O)O)c1	7.03
C=CCn1cc(Cl)cc(C(=O)Nc2ccccc2)c1=O	-7.56
Cc1nc2nc[nH]n2c(=O)c1NS(=O)(=O)c1ccc([N+](=O)[O-])cc1	19.5
Cc1c(NS(=O)(=O)c2ccc(C(=O)NCc3ccc(F)cc3)cc2)c(=O)n(-c2ccccc2)n1C	-15
Cc1ccc(C2OC(=O)C=C2c2ccccc2)cc1 (centres unmarked)	3.71
N#CC(C#N)=C(N)/C(C#N)=C/c1cc(O)c(O)c(O)c1	15.9
O=C1CCCCCN1CP(=O)(O)CCc1ccccc1	3.98
CS(=O)(=O)N1CCN(c2ccc(NC(=O)C(c3ccccc3)c3ccccc3)cc2)CC1	-2.88
CCOc1ccccc1/C=N/n1c(C)nc2ccccc2c1=O	3.63
COc1ccc(-c2c(-c3cc(OC)cc(OC)c3)n(C)c3ccc(-c4ccc(OC)cc4F)cc23)cc1	12.3
COCCC1CCCCN1C(=O)c1cccc(OC2CCN(S(C)(=O)=O)CC2)c1 (centres unmarked)	5.55
Cc1[nH]ncc1N=Cc1ccc([N+](=O)[O-])cc1	12.5
COC(CC(=O)NNC(=S)Nc1ccc(Cl)cc1)OC	23.5
Cc1ccc(C(c2c(O)nc3n(c2=O)CCS3)c2c(O)nc3n(c2=O)CCS3)cc1	19.8
COC(=O)CN(c1ccc(C(C)C)cc1)S(=O)(=O)c1c(C)[nH]c(=O)[nH]c1=O	16.3
O=c1cc2n(c(=O)[nH]1)CCC1=C2CCCC1	12.3
CC(C(=O)Nc1ccc(N2CCOCC2)cc1)N1C(=O)c2ccccc2C1=O (centres unmarked)	-3.17
Cc1noc(C)c1CSCC(=O)Nc1cc(Cl)ccc1N1CCCCC1	1.96
CC(=O)N1CCOc2ccc(S(=O)(=O)Nc3ccc(C)cn3)cc21	10.6

Structure (SMILES)	hERG current change (%, negative = inhibition) at 10uM [%]
CCC(C)NC(=O)C1CCCCN1S(=O)(=O)c1ccc(F)cc1 (centres unmarked)	-5.25
CC1=CCP(=O)(c2ccccc2)C1 (centres unmarked)	-2.8
O=C(CCCSc1ccccc1)Nc1cccc(CO)c1	8.93
CCCCC(C(=O)O)C(C)CC(=O)Nc1nccs1 (centres unmarked)	9.92
COc1ccc(CC(=O)NC(C)c2nnc(SCC(=O)Nc3nc(C)cs3)n2C)cc1 (centres unmarked)	0.589
N#Cc1c(N)nc2c(c1-c1ccc3c(c1)OCO3)CCCCCC2	1.67
CN(NC(=S)Nc1ccc(OC(F)F)cc1)C(=S)Nc1ccc(OC(F)F)cc1	-27.6
Cc1ccc(CNC(=O)/C=C/c2ccc(Br)o2)cc1	-26.2
CCOC(=O)c1ccccc1NC(=O)C=C(C)C	5.66
COCCn1c(SCC(=O)Nc2cc(C)on2)nnc1-c1ccco1	-4.67
O=C(NCCCn1ccnc1)c1ccc(Br)s1	-9.08
COc1cc(OC)cc(C(=O)NCC(=O)OCC(=O)C(C)(C)C)c1	16.6
CC(Oc1cccc(Cl)c1)C(=O)Nc1cc(S(=O)(=O)N2CCOCC2)ccc1N1CCCCC1 (centres unmarked)	8.44
CCOC(=O)c1ccc(-n2c(CN3CCC(C(N)=O)CC3)nc3ccc([N+](=O)[O-])cc3c2=O)cc1	-27.3
CCOC(=O)c1c(C)oc2ccc(OC(=O)COc3c(F)c(F)c(F)c(F)c3F)cc12	16.5
CCN(CC(=O)NCc1ccc(Cl)cc1)CC(=O)Nc1ccc(C(N)=O)cc1	15.2
Cn1c2ccccc2c2cnn(CC(=O)Nc3ccccc3Br)c(=O)c21	3.78
N/C(=N\OC(=O)c1cccc2ccccc12)c1ccccn1	-2.1
O=C(O)/C=C/C(=O)N1CCN(S(=O)(=O)c2cccc(C(F)(F)F)c2)CC1	-36.9
COc1ccc(NC(=O)CSc2ncnc3c2sc2ccccc23)c(OC)c1	14.1
O=c1[nH]c2ccc(NS(=O)(=O)c3ccc(Cl)cc3)cc2[nH]1	15.8
CCN1CCN(C(=O)Cn2ncc3c([nH]c4ccc(C)cc43)c2=O)CC1	-2.07
CSC(=Nc1ccccc1)C(C#N)c1nc2ccccc2[nH]1 (centres unmarked)	11.6

Structure (SMILES)	hERG current change (%, negative = inhibition) at 10uM [%]
C#CCN(CC=C)C(=O)C1CCC(=O)N(CCCc2ccccc2)C1 (centres unmarked)	3.39
CC(=O)OC(C)C[N+](C)(C)C.[Cl-] (centres unmarked)	4.31
Cc1ccc(OCC(=O)NNC(=S)NCc2ccccc2)cc1	18.2
COc1ccccc1NC(=O)CSc1ncn(-c2ccccc2)n1	-41.1
COCCSc1ccccc1C(=O)Nc1ccc([N+](=O)[O-])cc1OC	-39.9
CN(C)S(=O)(=O)Oc1cccc(C(=O)Nc2ccc(Cl)c(Cl)c2)c1	-7.49
Cc1c(-c2ccccc2)[n+](=O)c(-c2ccc(Cl)cc2)c(C)n1[O-]	21.2
Cc1nc2ccccn2c1C(=O)CSc1ccc(Cl)cc1Cl	-4.24
Cc1sc2nc(C(C)Sc3n[nH]c(N)n3)[nH]c(=O)c2c1C (centres unmarked)	6.77
CC1CCN(CC(=O)c2cccc(C(F)(F)F)c2)CC1.O=C(O)C(=O)O	7.63
COc1ccc(S(=O)(=O)N2CCCC2CNC(=O)C(=O)NCc2ccccc2Cl)cc1 (centres unmarked)	-22.3
COCCNC(=S)N/N=C/c1ccc2c(c1)OCCO2	-17.4
CCCN1CCN(C(=O)c2cc(COc3ccc(F)c(F)c3)on2)CC1	-44.8
O=C(CNc1ccc(F)cc1)N/N=C/c1c(O)ccc2ccccc12	12.8
Cc1ccccc1-c1nc(CS(=O)(=O)CC(=O)NCc2ccccc2)c(C)o1	-4.06
C=CCn1c(N)cc(=O)nc1SC(C)C(=O)Nc1ccc(C(=O)OCC)cc1 (centres unmarked)	6.4
O=C(Nc1cccc(Cl)c1)c1ccc(NCC2CCCO2)c([N+](=O)[O-])c1 (centres unmarked)	-2.53
O=C(Cn1nc(Cc2cccnc2)c2ccccc2c1=O)Nc1cccnc1Cl	3.37
CCC(=O)Nc1cccc(-c2cc3ccccc3oc2=O)c1	-28.2
COc1ccc(-c2cc(C(F)(F)F)nc(SCC(=O)NCCN3CCOCC3)n2)cc1OC	-5.84
